The source gives no read counts; variants with many changes may rest on few reads.
B1: LINE1-mini (parent)
chain: GGCAGAGCUCAACACAGCGUGGCAAAGUGGCUGUGGCUAGACUGCC

Variants of: B1
Test: self-cleavage, relative activity (ratio to wild type); higher = more cleavage; in vitro, sequencing; the parent is a self-cleaving ribozyme

Variant | self-cleavage
GGAAGAGCUCAACACAGCGUGGCAAAGUGGCGGUGGCUAGACUGAC | 0.17
GGAAGAGCAGAACACAGCGUGGCAAAGUGGCUGUGGCUAGACUGCC | 0.07
GGAAGAGCUCAACACAGCGUGGCAAAGUGGCUUUGGCUAGAAUGCC | 0.52
GGAAGAGCUCAACACAGCGUGGCAAAGUGGCUUAGGCUAGACUGCC | 0.21
GGAAGAGCACUACACAGCGUGGCAAAGUGGCUGUGGAUAGACUGCC | 0.08
GGGCGAGUUCAACACGGCGUUGCAAAGUGGCUGUGGCUAGACUGCC | 0.05
GGAAGAGCUCAACACAGCGUGGCAAAGUGGCUGUGCCUAAACUGCC | 0.32
GGAAGAGCGCAACACAGCGUGGCAAAGUGGCUGUGGCUAGACUGCA | 0.04
GGGUGUGCUCAACACACCGUGGGAAAGUGGCUGUGUCUAGACUGCC | 0.04
GGAAGAGCUCAACACAGCGAGACAAAGUGGCUGUGGCUAGACUGCC | 0.12
GGAAGAGCGCAACGCAGCGUGGCAAAGUGGCUGAGGCUAGACUGCC | 0.24
GGAAGAGCUCAACACAGCGUGGCAAAGUGGCUGUGGCUAUAGUGGC | 0.06
GGAAGAGCUCAACACAGCGUGGCAAAGUGGCUGUGGCUACACUUCC | 0.11
GGGCGAGCUCAACAUAGCGUGGCAAAGUGGCUGUGGCUAGACUGCC | 0.03
GGAAGAGCACAACACAGCGUGACAAAGAGGCUGUGGCUAGACUGAC | 0.18
GGAAGAGCGCAAUACAGCGUGGCAAAGUGGCUGAGGCUAGACUGCC | 0.21
GGAAGAGCUCAACACAGCGCGGCAAAGUGGAUGUGGCUAGAAUGCC | 0.06
GGGUGAGCUCGACACAGCGUGGCAAAAUGGCUGUGGCUAGACUGCC | 0.04
GGGCGAGCUCAACACAGCGUGGCAGAGCGGCCGUGGCUACACUGCC | 0.11

Variant | self-cleavage
GGAAGAGCUCAACACAGCGCGUCAAAGUGGCUGUAGCUAGAAUGCC | 0.05
GGAAGAGCCCAACACAGCGUGGGAAAGUGGCUGUUGCUAGACUGUC | 0.02
GGAAGAGCACAACACAGCGUGGCAAAGUGGCUGAGGCUAAACUGCC | 0.51
GGAAGAGCUCAACACAGCGCGGCAAAGUGGCUGUGGCUAGACUGGC | 0.11
GGGCGAGCUCAACACAGCGUGGCAAAGUGGCUGUGGCUAAACUGCC | 0.02
GGAAGAGCUCAACACAGCGUGGCAAAGUGGCUCUAGCUAGACUGCC | 0.09
GGAAGAGCUCAACACAGCGUGGCAAAGAGGGUGUGGCUAAACUGCC | 0.13
GGAAGAGCUCAACACAGCGUGGCAAAGUGCCUGUGGCUAGACGGAC | 0.03
GGGGGAUCUCAACACAGCGUGGCAAAAGGGCUUUGGCUAGACUGCC | 0.03
GGGCUAAGCUCAAACAGCGUGGCAAAGUGGCUGUGGCUAGACUGCC | 0.02
GGAAGAGCUCAACACAGCGUGGCAAAGUGUCUGCAGCUAGACUGCC | 0.07
GGAAGAGCUCAACACAGCGUGGCAAAGUGGCUUUCGCUAGACUGCC | 0.14
GGAAGAGCUCAACACAGCGAGGCAAAGUGACUGUGGUUAGACUGCC | 0.8
GGAAGAGCUCAACACAGCGUGGCAAAGUGGCCGUGGAUAGACUGCU | 0.2
GGGCGGGCUCAACACAGCGUGGCAAAGUGGGUGUGGCUAGACUGCC | 0.13
GGAAGAGCUCAACACAGCGUGGCAAAGUGGCUGUAGCUCGACCUCC | 0.04
GGAAGAGCCCAACACAUCGUGGCAAAGUGGCUGUGGCUAGACUGCC | 0.05
GGAAGAGCUCAACACAGCGUGGCAAAGUGGCUGUGUCUAGACUGGC | 0.81
GGGCGAGAUCAAAACAGCGUGGCAAAGUGGCUGUAGCUAAACUCCU | 0.04

Variant | self-cleavage
GGAAGAGCUCAACACAGCGUGGCAAAGUGGCUGUGGCGGGACUGCC | 0.05
GGAAGAGCUCAACACAGCGUGGCAAAGUGGCAGUAGCUUGACUGAA | 0.03
GGAAGAGCUCAACACAGCGAGGCAAGGUGGCUAUGGCUAGACGGCC | 0.02
GGAAGAGCUCAACACAGCGUGGCAAAGUGGCUGUGGCUACACGGCC | 0.45
GGGGGAGAGCAACACAGCGUGGCAAAGUGGCUGUGGCUAGACUGCC | 0.3
GGAAGAGCUCAACACAGCGGGGCAAAGUGGCUGUGGCAAGACUGCC | 0.06
GGAAGAGCUCAACACAGCGUGGCAAAGUGGCAGUAGCAAAACUGCC | 0.09
GGAAGAGCCCAACACAGAGUGGCAAAGUGGCUGUGGCUAGACUGCC | 0.07
GGGCGAGUUCAACACAGCGUGUCAAAGUGGCUGUGGCUAGACUGCC | 0.08
GGAAGAGCACAACACAGCGUGGCAAAGUGGCUGUGGCUAGUCUGCC | 0.04
GGAAGAGCUCAACACAGCGAGGCAAAGUGGAUGUGGCUAGACUGCC | 0.06
GGAAGAGCUCAACACAGCGUGGCAAAGUGGCGGUGGUUACACUGCC | 0.03
GGGCGAGCUCAAUACAGCGUGGCAAAGUGCUUGUGGCGAGACUGGC | 0.02
GGAAGAGCGCAACACAGGGUGGCAAGGUGGCUGUGGCUAGACUGCC | 0.1
GGAAGAGCUCAACACAGCGUGGCAAAGAGGCUGUUGGUAGAUUGCC | 0.22
GGAAGAGCACAACACGGCGUGGCAAAGUGGCUGUGGCUAGACUGCC | 0.58
GGAAGAGCUCAACACAGCGUGGCAAAGUGUCUGUGUCUAGACUGCC | 0.08
GGAAGAGCUCAACACAGCGUGGCAAAGUGGCUUUGGCUAGACCGCC | 0.33

Reference: the RNAGym collection of RNA variant scans (doi:10.7554/elife.90254)
